# Data reported in PubChem BioAssay AID488969 (Vanderbilt High Throughput Screening Facility, 2010).
# The full ranking holds about 110,000 compounds; the median of “z-score” is about -0.1, and the highest 2% start at about 2. This is one part of the list. The source made the active and inactive calls.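 How the source made its calls: active means z-score in the third read window above 3 or below -3; inactive means the rest.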
# Target: Metabotropic glutamate receptor 8 (Rattus norvegicus) (UniProt P70579)
# Assay: mGluR8 Gi/Go-coupled signaling modulation – cell-based, rat, thallium flux, HTS, primary screen (AID 488969)
# Conditions: HEK293 rat mGluR8, GIRK (G protein-gated inwardly rectifying potassium channel) thallium flux, FluoZin2; at 10 µM; stronger effect = higher value; submaximal glutamate (EC20) added with thallium
# Sequence of UniProt P70579 (P70579 whole entry, looked up): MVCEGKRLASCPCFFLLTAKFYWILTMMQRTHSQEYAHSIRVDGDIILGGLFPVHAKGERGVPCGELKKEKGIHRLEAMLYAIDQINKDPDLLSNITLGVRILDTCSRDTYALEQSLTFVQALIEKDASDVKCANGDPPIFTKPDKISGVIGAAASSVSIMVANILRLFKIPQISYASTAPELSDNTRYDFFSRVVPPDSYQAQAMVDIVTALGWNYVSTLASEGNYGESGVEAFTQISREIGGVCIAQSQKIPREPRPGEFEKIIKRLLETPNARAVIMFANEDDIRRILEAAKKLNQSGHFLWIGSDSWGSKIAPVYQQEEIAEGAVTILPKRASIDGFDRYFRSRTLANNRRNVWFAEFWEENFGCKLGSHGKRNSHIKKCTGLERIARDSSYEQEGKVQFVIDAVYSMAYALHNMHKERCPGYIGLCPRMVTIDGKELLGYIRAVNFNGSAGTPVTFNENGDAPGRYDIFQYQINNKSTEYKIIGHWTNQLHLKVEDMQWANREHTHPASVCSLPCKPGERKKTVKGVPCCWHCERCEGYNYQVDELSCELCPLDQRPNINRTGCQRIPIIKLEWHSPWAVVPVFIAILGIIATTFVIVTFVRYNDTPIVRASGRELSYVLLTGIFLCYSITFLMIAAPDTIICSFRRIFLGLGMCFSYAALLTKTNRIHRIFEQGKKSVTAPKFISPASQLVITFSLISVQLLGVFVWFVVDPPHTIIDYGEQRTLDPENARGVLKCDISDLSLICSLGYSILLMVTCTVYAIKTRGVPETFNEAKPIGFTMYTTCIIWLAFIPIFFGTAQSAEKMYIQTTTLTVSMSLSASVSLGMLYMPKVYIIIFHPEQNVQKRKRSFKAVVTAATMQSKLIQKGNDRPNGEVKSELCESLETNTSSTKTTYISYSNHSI
row,Structure (SMILES),z-score
1,CC(=O)N1CCc2cc(S(=O)(=O)Nc3cccc(C(F)(F)F)c3)ccc21,-0.237
2,CC(C)n1c(NCc2nc3ccccc3n2C)nc2ccccc21,-1.2
3,COc1ccc(NC(=O)CCN2CCC(C)CC2)cc1,0.105
4,Cc1cc(C)n(-c2nc(N(C)C)nc(N3CCOCC3)n2)n1,-0.234
5,N#Cc1c(-c2cccs2)cc(-c2cccnc2)nc1N,0.891
6,COC(=O)C(Cc1c[nH]c2ccccc12)NC(=O)C(C)C (centres undefined),-0.146
7,CCN(CC)c1ccc(NC(=O)OC)cc1,-0.117
8,O=C(CSc1nnc(Cn2c(=O)sc3ccccc32)n1-c1ccccc1)N1CCOCC1,0.0802
9,COc1nc(Nc2ccc3c(c2)OCO3)nc(OC)n1,-0.21
10,O=C1C2C(c3ccccc3)C=CC(c3ccccc3)C2C(=O)N1C1CCCCC1 (centres undefined),-0.89
11,Cc1ccc(S(=O)(=O)c2cnc(-c3ccccc3)nc2Oc2ccccc2)cc1,-0.308
12,O=C(Nc1ccccc1)Nc1cccc(Cl)c1,0.0364
13,COC(=O)c1cn(NC(=O)c2ccc(F)cc2)c(=O)c2ccccc12,-0.423
14,Cc1ccc(-c2nsc(SCC(=O)NCc3ccc4c(c3)OCO4)n2)cc1,-0.00793
15,Cc1ccc(CN2C(=O)NC(Cc3c[nH]c4ccccc34)C2=O)cc1 (centres undefined),-0.269
16,COCC(=O)Nc1cc(OC)ccc1OC,0.423
17,O=[N+]([O-])c1ccc(O)c(C=Nc2ccc3nc(-c4ccccc4)[nH]c3c2)c1,-0.271
18,CC(=O)Nc1ccc(S(=O)(=O)N(CCO)Cc2ccccc2)cc1,0.159
19,COc1ccc(N=Cc2sc3ccccc3c2Cl)cc1,0.0672
20,CCS(=O)(=O)N1CCC(C(=O)NCCCN2CCCC2)CC1,-0.118
21,COc1ccc(C)cc1S(=O)(=O)N(C)CC(=O)N1CCCCCC1,-0.534
22,O=C(CSc1nc(-c2ccccc2)c(-c2ccccc2)[nH]1)N1CCN(S(=O)(=O)c2ccccc2)CC1,-0.463
23,O=[N+]([O-])c1cccc(/C=C/c2nc(C=Nc3ccc4ccccc4c3)c(O)o2)c1,-0.0456

row,Structure (SMILES),z-score
1,Cc1ccc(SCc2cc(=O)[nH]c(Nc3nc(C)c4ccccc4n3)n2)cc1,0.834
2,CCCCOc1ccc(C(=O)NC)cc1,0.31
3,COc1ccc(/C=N/n2cnc3c([nH]c4ccc(Br)cc43)c2=O)cc1CN1CCOCC1,-0.0868
4,O=C(OCC(=O)N1CCN(C(=O)c2ccco2)CC1)c1sc2cc(F)ccc2c1Cl,-0.404
5,COc1ccc(/C=N/NC(=O)CN2CCS(=O)(=O)CC2)cc1,-0.11
6,CCOC(=O)C1=C(C)NC(SCC(=O)Nc2cc(C)on2)=C(C#N)C1c1cccs1 (centres undefined),-1.81
7,C/C(=N/NC(=O)c1cc(Cl)ccc1O)C12CC3CC(CC(C3)C1)C2,active: 3.19
8,COC(=O)c1ccc(CSc2nc(C)nc3c2c(=O)n(C)c(=O)n3C)o1,-0.371
9,CCOC(=O)c1ccc(NC2c3ncccc3C(=O)N2Cc2ccc(F)cc2)cc1 (centres undefined),-0.234
10,CC1CCc2sc(NC(=S)NC(=O)c3ccccc3)c(C#N)c2C1 (centres undefined),0.0703
11,CCCCCCSc1nnc(-c2cnn(-c3ccccc3)c2-n2cccc2)n1C,-1.18
12,O=C(c1cnn2c1NC(c1ccc(Br)cc1)CC2C(F)(F)F)N1CCN(C23CC4CC(CC(C4)C2)C3)CC1 (centres undefined),-0.105
13,Cc1cccc(S(=O)(=O)Nc2ccc(-c3cn4ccccc4n3)cc2)c1,-0.328
14,Cc1cccc(NC2=Nc3ccccc3N3C2=Nc2c(c(C)nn2-c2ccccc2)C3c2ccc(O)c(O)c2)c1 (centres undefined),-0.0241
15,COc1cc(/C=C2\OC(=O)c3c(OC)cccc32)ccc1O,-0.195
16,CNC(=S)NNC(=O)c1cccc(C(F)(F)F)c1,1.83
17,Cc1nc(Nc2ccncc2)c2oc3ccccc3c2n1,1.38
18,Cc1occc1C(=O)Nc1ccc2c(c1)OCO2,-0.0683
19,NC(=S)N/N=C/c1coc2cc(Cl)ccc2c1=O,-0.289
20,Cc1ccc(Cc2nc(-c3ccccn3)no2)cc1,0.189
21,COCc1nc2sc(C)c(C)c2c(=O)[nH]1,0.603
22,CCOC(=O)CSc1nc2ccsc2c(=O)n1C1CCN(C(=O)OCC)CC1,-0.516
23,Cc1ccc(N2C(=O)c3n[nH]c(C)c3C2c2cccnc2)cc1 (centres undefined),-0.536

row,Structure (SMILES),z-score
1,CCOC(=O)N1CCN(C(=O)c2ccccc2CCc2ccccc2)CC1,-0.513
2,COc1ccc(S(=O)(=O)Nc2nncs2)cc1,-0.189
3,O=C(Nc1ccccc1Cl)NC1(C(=O)N2CCCCC2)CCCCC1,0.141
4,Cc1ccsc1/C=N/n1c(-c2ccccn2)n[nH]c1=S,-0.121
5,COc1ccccc1OCCNC(=O)c1cccs1,-0.0498
6,Cc1ccc(CCNC(=O)C2CCCN(S(=O)(=O)c3c(C)noc3/C=C/N(C)C)C2)cc1 (centres undefined),-0.519
7,Cc1nnc(N(C)C(=O)Cc2ccc3c(c2)OCO3)s1,0.0151
8,Cc1ccc(S(=O)(=O)N2CCN(c3nc(C(C)C)c4c(c3C#N)CC(C)(C)OC4)CC2)cc1,-0.438
9,COc1ccc(CN=C2NC(=O)CC(C(=O)Nc3ccc(F)cc3)S2)cc1 (centres undefined),-0.106
10,COc1ccc(NC(=O)CN(c2cc(C)cc(C)c2)S(=O)(=O)c2c(C)n[nH]c2C)cc1,-0.532
11,O=C(NNc1cccc(Cl)n1)Nc1cccc(Cl)c1,0.158
12,COC(=O)c1ccc(Oc2nc(NC(C)C)nc(SC)n2)cc1,-0.809
13,COc1ccc2[nH]cc(C(=O)CN3CCN(C/C=C/c4ccccc4)CC3)c2c1,0.259
14,c1ccc2c(Nc3nnc(-c4ccncc4)s3)cccc2c1,active: 4.07
15,CC(=O)c1c(C)[nH]c(C(=O)COc2ccc(C#N)cc2)c1C,-0.0197
16,CCOc1ccccc1NC(C)C(=O)Nc1cc(C(F)(F)F)ccc1N1CCOCC1 (centres undefined),-0.267
17,Cc1c(NC(=O)C2CCCN2S(=O)(=O)c2ccc(Cl)cc2)c(=O)n(-c2ccccc2)n1C (centres undefined),-0.579
18,COc1cc(C)ccc1OCCOCCOc1ccccc1[N+](=O)[O-],-0.274
19,NS(=O)(=O)c1ccc(CCNC(=S)Nc2ccccc2)cc1,-0.217
20,CC1(C)CC(=O)C2=C(C1)N(CCN1CCOCC1)C1=C(C(=O)CC(C)(C)C1)C2c1cccc(Cl)c1,-0.714
21,COc1ccc(S(=O)(=O)N2CCC(NC(=O)OCc3c(Cl)cccc3Cl)CC2)cc1,-0.28
22,Cc1ccc(S(=O)(=O)N(C)CC(O)Cn2c3ccccc3c3ccccc32)cc1 (centres undefined),-0.232
23,Cc1cc(C)c[n+](-c2nc3ccccc3nc2[N-]S(=O)(=O)c2cccs2)c1,-0.407
